The source of these data is PMC4336329 (PLoS ONE, 2015).

Among all 310,000 compounds or so, about 14,000 (4.5%) showed an effect of 50% or more. The effect is printed as a negative number. This is one part of the list.
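Also: peak tail current of the secondary pulse compared with the same well before compound.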

The target in this test is human ether-à-go-go-related gene (hERG) potassium channel (human, UniProt Q12809). The experiment in a line: primary screen, population patch clamp on CHO cells stably expressing hERG.
Sequence of human ether-à-go-go-related gene (hERG) potassium channel (Q12809 whole entry, looked up): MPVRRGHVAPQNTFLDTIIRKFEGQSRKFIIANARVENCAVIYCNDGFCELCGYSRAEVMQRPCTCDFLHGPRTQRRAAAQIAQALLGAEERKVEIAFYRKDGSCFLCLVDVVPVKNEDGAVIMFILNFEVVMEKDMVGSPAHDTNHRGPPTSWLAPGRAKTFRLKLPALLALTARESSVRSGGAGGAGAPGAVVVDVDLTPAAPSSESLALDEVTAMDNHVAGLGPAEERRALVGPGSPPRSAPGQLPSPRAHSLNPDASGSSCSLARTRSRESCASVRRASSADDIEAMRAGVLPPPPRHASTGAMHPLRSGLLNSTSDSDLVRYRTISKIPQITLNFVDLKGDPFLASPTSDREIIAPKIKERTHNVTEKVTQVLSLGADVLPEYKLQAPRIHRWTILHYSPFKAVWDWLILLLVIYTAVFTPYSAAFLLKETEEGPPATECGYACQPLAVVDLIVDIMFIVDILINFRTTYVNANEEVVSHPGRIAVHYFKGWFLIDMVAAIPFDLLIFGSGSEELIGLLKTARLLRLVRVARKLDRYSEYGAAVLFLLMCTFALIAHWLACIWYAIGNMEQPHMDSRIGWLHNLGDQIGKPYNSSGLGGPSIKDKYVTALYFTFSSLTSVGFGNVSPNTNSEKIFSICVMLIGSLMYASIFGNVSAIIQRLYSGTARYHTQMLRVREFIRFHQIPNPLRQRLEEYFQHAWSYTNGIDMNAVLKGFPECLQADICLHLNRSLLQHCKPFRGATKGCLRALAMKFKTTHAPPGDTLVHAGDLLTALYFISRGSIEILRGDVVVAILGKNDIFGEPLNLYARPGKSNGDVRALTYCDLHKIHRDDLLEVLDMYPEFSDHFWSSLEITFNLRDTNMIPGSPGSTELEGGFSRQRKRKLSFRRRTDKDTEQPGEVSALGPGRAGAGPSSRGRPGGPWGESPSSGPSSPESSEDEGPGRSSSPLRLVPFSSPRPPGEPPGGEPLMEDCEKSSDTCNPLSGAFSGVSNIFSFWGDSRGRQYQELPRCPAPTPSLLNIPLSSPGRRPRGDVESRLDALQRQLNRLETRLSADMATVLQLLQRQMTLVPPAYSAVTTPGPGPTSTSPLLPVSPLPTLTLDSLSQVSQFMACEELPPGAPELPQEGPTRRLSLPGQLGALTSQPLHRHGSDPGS
In the case of `COC(=O)c1[nH]c(=O)c2ccccc2c1OCc1ccccc1`, the “hERG current change (%, negative = inhibition) at 10uM” value was -1.05%.

In the case of `Cc1c(N(C)C(=O)c2ccc3c(c2)OCO3)c(=O)n(-c2ccccc2)n1C`, the “hERG current change (%, negative = inhibition) at 10uM” value came to 12.5%.

Consider `O=C(NCCN1CCOCC1)C1CCC(=O)N1Cc1ccc(F)cc1` (stereo not shown), for which the “hERG current change (%, negative = inhibition) at 10uM” value is given as 1.05%.

For the compound `COc1cc(/C=C/C(=O)OCC(=O)N2CCCc3ccccc32)ccc1OC(F)F`, the “hERG current change (%, negative = inhibition) at 10uM” value is -22.8%.

Regarding `COc1ccc(-n2c(C)cc(=O)c3c2CC(C)(C)CC3=O)cc1`, the “hERG current change (%, negative = inhibition) at 10uM” value came out at 8.91%.

Regarding `O=Cc1c(Cl)nc2ccccn12`, the “hERG current change (%, negative = inhibition) at 10uM” value came to 14.8%.

Take `CNC(=S)N1N=C(c2cccs2)CC1c1ccc(OC)cc1` (stereo not shown): the “hERG current change (%, negative = inhibition) at 10uM” value is reported as -10.7%.

For the compound `C=CCN(Cc1ccc(OC)c(OC)c1)C(=O)c1cc2cc(F)ccc2[nH]1`, the “hERG current change (%, negative = inhibition) at 10uM” value is recorded as 4.14%.

`O=C(CSc1ccccc1C(=O)NCc1ccccc1)NC1CCCCCCC1`: the “hERG current change (%, negative = inhibition) at 10uM” value is -8.1%.

For `COc1ccc(NC(C)=O)cc1NC(=O)CSc1nnc(-c2ccccc2)n1N`, the “hERG current change (%, negative = inhibition) at 10uM” value is 13.6%.

`Cc1ccc(C2CC(c3cccc(Br)c3)Nc3nnnn32)cc1` (stereo not shown): the “hERG current change (%, negative = inhibition) at 10uM” value was -7.07%.

For the compound `CN(C)CC(O)COc1cccc(OCC(O)CN(C)C)c1.Cl` (stereo not shown), the “hERG current change (%, negative = inhibition) at 10uM” value came out at 11.8%.

As for `CCc1cc(CNC(=O)C2CCC(=O)N(Cc3cccc(F)c3)C2)on1` (stereo not shown), the “hERG current change (%, negative = inhibition) at 10uM” value is given as 2.18%.

With `CCOC(=O)c1sc(N)c(C#N)c1COC(=O)CNC(=O)c1ccccc1`, the “hERG current change (%, negative = inhibition) at 10uM” value was -1.8%.

For `COC(=O)CN(c1ccc(F)cc1)S(=O)(=O)c1ccccc1`, the “hERG current change (%, negative = inhibition) at 10uM” value amounted to 4.48%.

Consider `O=C(Nc1ccc(Br)cc1)c1cccc(N2C(=O)C3C4CCC(C4)C3C2=O)c1` (stereo not shown), for which the “hERG current change (%, negative = inhibition) at 10uM” value is -9.13%.

On to `COc1ccccc1N1CCN(C(=O)CNS(=O)(=O)c2ccc(Br)s2)CC1`, for which the “hERG current change (%, negative = inhibition) at 10uM” value is -13.6%.

As to `O=C(Cn1ncc2ccccc21)N1CCc2ccccc21`, the “hERG current change (%, negative = inhibition) at 10uM” value is -8.94%.

For `CCCCNC(=O)CSc1nc2cc3c(cc2c(=O)n1CCCC(=O)NCCc1ccc(OC)c(OC)c1)OCO3`, the “hERG current change (%, negative = inhibition) at 10uM” value is 1.71%.

As to `CN1CCN(c2ccc(-c3cccc(NC(=O)COc4ccc(Cl)cc4)c3)nn2)CC1`, the “hERG current change (%, negative = inhibition) at 10uM” value was -50.7%.

Consider `CC(C)(C)NC(=O)Cn1c(SCC(=O)Nc2nccs2)nc2ccccc21`, for which the “hERG current change (%, negative = inhibition) at 10uM” value was found to be 4.51%.

Regarding `S=c1[nH]nc(-c2ccco2)n1/N=C/c1cccc(Cl)c1Cl`, the “hERG current change (%, negative = inhibition) at 10uM” value turned out to be 13.8%.

Consider `COC(=O)c1cccc(C(=O)N2CCCC(CNC(=O)c3ccccc3Cl)C2)c1` (stereo not shown), for which the “hERG current change (%, negative = inhibition) at 10uM” value amounted to 16.8%.

Turning to `CCCCOCCCNC(=O)CN1C(=O)c2ccccc2C1=O`, the “hERG current change (%, negative = inhibition) at 10uM” value came out at 9.01%.

Regarding `O=C1C2C3c4ccccc4C(c4ccccc43)C2c2nc3ccccc3n21` (stereo not shown), the “hERG current change (%, negative = inhibition) at 10uM” value worked out at 8.73%.

Consider `CCCNC(=O)c1cc(C)no1`, for which the “hERG current change (%, negative = inhibition) at 10uM” value stood at 12.6%.

Consider `CCOC(=O)NC(Nc1ccc(OC)cc1)(C(F)(F)F)C(F)(F)F`, for which the “hERG current change (%, negative = inhibition) at 10uM” value was 17.9%.

Regarding `C=CCN1C(=O)C2(/C(=C(\O)c3ccc4c(c3)OCCO4)C(=O)C(=O)N2CCCOC)c2ccccc21` (stereo not shown), the “hERG current change (%, negative = inhibition) at 10uM” value was 8.1%.

As to `COC(=O)c1cccc(Nc2nc(-c3ccncc3)nc3ccccc23)c1`, the “hERG current change (%, negative = inhibition) at 10uM” value worked out at 28.5%.

Turning to `O=C(c1nnc(-c2ccncc2)o1)c1ccccc1Cl`, the “hERG current change (%, negative = inhibition) at 10uM” value is recorded as -3.04%.

Consider `N#Cc1cc([N+](=O)[O-])ccc1NCCc1ccccn1`, for which the “hERG current change (%, negative = inhibition) at 10uM” value is -18.4%.

For `COc1ccccc1-c1nnn(C/C(N)=N/O)n1`, the “hERG current change (%, negative = inhibition) at 10uM” value was 18.5%.

For `O=C(C1CCC1)N1CCC(c2nc3c(nnn3Cc3c(F)cccc3Cl)c(=O)[nH]2)CC1`, the “hERG current change (%, negative = inhibition) at 10uM” value was determined as 1.4%.

For the compound `Cc1ccc(Cl)cc1N1CCN(S(=O)(=O)c2ccc3c(c2)CC(=O)N3C)CC1`, the “hERG current change (%, negative = inhibition) at 10uM” value is -3.65%.

Take `CCOC(=O)CNc1nc(Cl)nc(Nc2ccc(OC)cc2OC)n1`: the “hERG current change (%, negative = inhibition) at 10uM” value was 19.2%.

Consider `CCOC(=O)c1sc(SC)c2c1CCCC2=O`, for which the “hERG current change (%, negative = inhibition) at 10uM” value was -5.11%.

For `Cc1cc(O)c(C2(O)C(=O)Nc3cc(Br)ccc32)cc1C` (stereo not shown), the “hERG current change (%, negative = inhibition) at 10uM” value worked out at 23.3%.

With `CCCn1c(-c2ccc(C(=O)OC)cc2)nc2c1c(=O)[nH]c(=O)n2Cc1ccccc1`, the “hERG current change (%, negative = inhibition) at 10uM” value was 1.15%.

With `CC(=O)c1ccc(NC(=O)C2=CC(c3ccc4c(c3)OCO4)=NS(=O)(=O)N2C)cc1`, the “hERG current change (%, negative = inhibition) at 10uM” value is listed as -20.5%.

`Cc1ccccc1C(=O)c1cccn1CC(=O)NCc1ccc(F)cc1`: the “hERG current change (%, negative = inhibition) at 10uM” value worked out at 15.4%.

On to `COC(=O)[C@@]12CCCN1[C@H](c1ccc(-c3ccc(OC)cc3)c(OC)c1)[C@@H]1C(=O)N(C)C(=O)[C@@H]12.O=C(O)C(F)(F)F`, for which the “hERG current change (%, negative = inhibition) at 10uM” value is on record as -9.37%.

`Cc1cnc(C(=O)N2CCN(c3ccc(C(F)(F)F)cn3)CC2)cn1`: the “hERG current change (%, negative = inhibition) at 10uM” value is -13.4%.

Turning to `CCOc1ccc(C(CC(=O)O)NC(=O)Cc2ccc(Cl)cc2)cc1` (stereo not shown), the “hERG current change (%, negative = inhibition) at 10uM” value stood at 11.8%.
